Inconclusive means that the source gave no clear call. Such entries were picked first, then a sample of the others. No potency is given beside an inconclusive call; the fits are too rough. Activity calls are given as the source filed them. Calls come from the whole dose curve; as a rule, active = well fitted activation curve with a large enough effect; inconclusive = small, poorly fitted or top-dose-only effect; inactive = no such curve, though single readings can be large or run the other way.
Assay: qHTS Assay for Agonists of the Relaxin Receptor RXFP1: V1B Hit Validation;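 note: counter-screen in HEK293 cells expressing V1B rather than RXFP1 for selectivity; nearly all actives have a fitted effect of over 65% in size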;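 for activation: cAMP accumulation with PDE4 inhibitor Ro 20-1724 present during compound exposure; 0% = buffer alone basal and 100% = 29 nM porcine relaxin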
Details: HEK293 V1B cells, cAMP TR-FRET, 30 min; series mostly up to 115 µM; activation: at the top concentration
Outline: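 HEK293 cells expressing V1B, 2000/well, treated 30 min at 37C with compound plus PDE4 inhibitor Ro 20174; cAMP by HTRF TR-FRET (665/615 nm). Normalized to buffer and 29 nM porcine relaxin; EC50 from Hill fit.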
Potency is the fitted concentration of half-maximal effect; tags give direction and shape of the fitted curve.

Row | Compound | Potency | activation
1 | O=C(Nc1ccc(Cl)cc1)Nc1ccccc1Sc1ncc([N+](=O)[O-])s1 | inconclusive [activator, partial curve, poor fit] | 
2 | CC1C/C(=N\NC(N)=S)c2cc(Cl)ccc2S1 (configuration not stated) | inconclusive [activator, partial curve, poor fit] | 
3 | O=C(Nc1ccccc1C(=O)NCCc1ccccc1)c1ccco1 |  | inactive: 3.59% [at 127 µM]
4 | O=C(Nc1ccccc1C(=O)NCc1ccco1)c1ccccc1 |  | inactive: 5.63% [at 127 µM]
5 | O=C(Nc1ccccc1C(=O)O)c1ccc(NC(=O)C2CC2)cc1 |  | inactive: 2.23%
6 | CCN(CC)S(=O)(=O)c1ccc(C(=O)NCCN2C(=O)S/C(=C\c3cccnc3)C2=O)cc1 | inconclusive [activator, partial curve] | 
7 | COC(=O)Cn1cnc2c(C#N)c3n(c2c1=O)CCCC3 | active: 21.9 µM | 
8 | N=c1c(C(=O)NC2CCCCC2)cc2c(=O)n3ccccc3nc2n1CC1CCCO1 (configuration not stated) | inconclusive [activator, partial curve] | 
9 | Cc1nn(CC(=O)NCCN2CCOCC2)c(=O)c2cc3sccc3n12 | inconclusive [activator, partial curve] | 
10 | CCOC(=O)CSc1nc(=O)n2cc(C)ccc2n1 | inconclusive [activator, partial curve, poor fit] | 
11 | O=C(O)c1ccc(N2C(=O)c3cccc4cccc(c34)C2=O)cc1 | active: 74.9 µM | 
12 | C[C@H](Cc1ccccc1)Nc1ncnc2c1ncn2[C@@H]1O[C@H](CO)[C@@H](O)[C@H]1O | active: 21.9 µM | 

— PubChem BioAssay AID492948 (National Center for Advancing Translational Sciences (NCATS), 2010)
